# The supplement of paper PMC3334620
# Over roughly 33,000 sequences, “E-score (-0.5 to 0.5)” has its median near -0.04; the highest 2% begin near 0.36. This is one part of the list.
# Molecular target: T1, Hmlalpha2 (UniProt P0CY09)
# T1 sequence: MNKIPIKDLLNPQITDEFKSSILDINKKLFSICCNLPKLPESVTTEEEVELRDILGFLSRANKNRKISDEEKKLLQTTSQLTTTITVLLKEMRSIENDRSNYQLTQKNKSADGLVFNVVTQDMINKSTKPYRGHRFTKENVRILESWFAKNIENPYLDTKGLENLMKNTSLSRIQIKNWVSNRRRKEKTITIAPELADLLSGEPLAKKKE
# Experiment: PBM E-score (8-mer binding enrichment) (E-score (-0.5 to 0.5)); higher = stronger / more preferred TF binding; most listed sequences are background and not binding sites
# Conditions: protein concentration: 200 nM; construct: GST-full length
# Protocol: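 Universal 'all 10-mer' protein binding microarrays (Agilent AMADID 015681) probed with GST-tagged S. cerevisiae TFs (full-length or DBD) made by in vitro transcription/translation (PURExpress), about 100-200 nM. Bound TF was detected with fluorescent anti-GST. Each ungapped 8-mer (which stands for itself and its reverse complement) is scored by the PBM enrichment score (E-score), a modified Wilcoxon-Mann-Whitney statistic from -0.5 to +0.5, computed with the Universal PBM Analysis Suite. Scale: above 0.35 generally sequence-specific binding.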
row,Sequence,PBM E-score
1,GCAGCCGA,-0.13
2,ATAGAGAT,0.0789
3,GAGTGCCA,-0.281
4,GACAATGA,-0.0828
5,ATCATATC,0.0449
6,GCCAAGTA,-0.0244
7,CGCTACTA,0.106
8,AACAGTCG,-0.186
9,AAAGCAAC,0.115
10,GGGGATAA,-0.178
11,ACTCCGGG,-0.19
12,CCCTTCGC,-0.212
13,TCTAGCCA,-0.166
14,CAAGCCGA,0.0589
15,GGTCTTCA,-0.313
16,AAATGTAT,0.277
17,CAGATGTA,0.0641
18,AACATTAT,0.326
19,AAGCACAG,0.0362
20,CGGGTTCA,-0.0294
21,ACCCCACT,-0.257
22,CATATAAC,0.157
23,ACAGTATG,0.0436
24,AGCGCCTC,-0.277
25,CACTTCCA,0.092

row,Sequence,PBM E-score
1,AGTCCACA,-0.0378
2,CGTGACTA,0.0651
3,ACTCTGAA,-0.0779
4,AATACCGA,-0.111
5,CTAATCGA,0.00191
6,AGCGCAGC,-0.176
7,CTTACAGA,0.0289
8,AGATAAGA,0.0492
9,CAATGCAG,0.00435
10,ATAGAGAA,0.123
11,TATGGCGA,-0.299
12,CCCGATGA,-0.0127
13,CAGTCAAA,0.0031
14,ACAGGCAC,-0.0734
15,CGCATAGA,-0.216
16,TCTTAACA,0.404
17,AAACGCTT,0.0378
18,CACTTGAA,0.0542
19,AGGAGCAT,0.0896
20,AGTTAACC,0.103
21,AATACATT,0.329
22,CGAGACGC,-0.125
23,AGTTGTTA,0.246
24,ATCCGCCG,-0.0747
25,AAGCGTGT,0.371

row,Sequence,PBM E-score
1,AGCCAGTG,-0.158
2,TCGGGTCA,-0.204
3,CGCTATAA,-0.00727
4,CCAAATGC,-0.167
5,AGTACTAT,0.0829
6,ACTATGCC,-0.0399
7,ATTACTCA,0.22
8,AACACTCT,0.235
9,CCCTGCGG,-0.264
10,ACAATGTC,0.176
11,AAAAGTGG,-0.0409
12,AGAAGCCC,-0.168
13,GGGCCCCA,-0.372
14,CATAGGTC,-0.0447
15,AGTCCTCA,-0.254
16,ATCCTGCA,-0.0119
17,CAAGTACG,0.0911
18,CGCAGACG,-0.108
19,GACCGATC,-0.144
20,ATTGAATG,0.069
21,GTGTTGAA,0.398
22,AAGGTCCA,-0.219
23,CCGTATCG,-0.212
24,CCGCGCAG,-0.204
25,CCGTCGTC,-0.267

row,Sequence,PBM E-score
1,ATTCGCGC,-0.0468
2,GGGCCACA,-0.275
3,CAGACGAG,-0.129
4,CGCTTAAC,0.217
5,AGTGACAC,0.222
6,AATCTACA,0.438
7,CCCTACTC,-0.141
8,AGCTTGAC,-0.148
9,CCCCCTTA,-0.375
10,GAATCACA,0.0227
11,AACCTATC,-0.15
12,AAAGCTCT,-0.154
13,CTTGGCTC,-0.189
14,AGCGGAGG,-0.235
15,ACCTTAGG,-0.209
16,GGCGTTAC,0.0453
17,AGATACCG,0.0272
18,ACGTAGGC,-0.017
19,CAATCGTC,-0.0103
20,CTTACATA,0.426
21,TACTTTCA,0.0368
22,CCGTCACA,-0.207
23,ACGAAGGG,-0.0444
24,CAGCCTTC,-0.301
25,ACGTTGGA,0.126

row,Sequence,PBM E-score
1,AGTCCCGC,-0.314
2,GTACTGGA,0.165
3,CCCTAACA,0.246
4,GAACGTAA,0.242
5,GAGTCTGC,-0.139
6,AAGCTGTC,-0.143
7,ACCTGCGC,-0.0923
8,AGGGACGC,-0.185
9,AGGCATCG,-0.146
10,AACGAGAT,-0.00737
11,AGGCCCTC,-0.321
12,CCAAGTAC,0.0274
13,GATTCTCA,0.00258
14,AGAACGTC,0.0127
15,CTTCACTC,-0.0574
16,AAAACACT,0.148
17,GGCTTACC,-0.29
18,CGTTAAGC,0.0573
19,GAGGGCCA,-0.255
20,AAAACGCC,0.0828
21,GCTATCTA,0.177
22,ACCTCTTC,-0.0525
23,AGACTGGC,-0.211
24,CTGTTGCA,-0.0465
25,GACCTCAC,-0.119

row,Sequence,PBM E-score
1,CATCGTTA,-0.118
2,TCCCAGCA,-0.135
3,ATTCATTA,0.124
4,CATTGTGG,-0.0779
5,CGGTATAA,-0.0126
6,CGGGTTTC,-0.0423
7,AAGCCGTG,0.0506
8,AACAGATT,0.0721
9,CGGTTAAC,0.118
10,ATATCCTG,0.00984
11,AGGCCTAC,-0.00827
12,TAGCCGCA,-0.196
13,GTCATGGA,-0.188
14,ACAAATGC,0.118
15,CGGAAACC,-0.29
16,AGAAAACA,0.259
17,AAAGGACA,0.0138
18,AACGGGGT,-0.255
19,GTAAAGAC,0.258
20,AGCAACCC,-0.204
21,ATTAATTC,0.208
22,AGGGATCA,-0.131
23,GTGAGAAC,-0.136
24,CACTGAGC,-0.111
25,CCCTCAAA,-0.158

row,Sequence,PBM E-score
1,GCCCTGAC,0.0421
2,TACACTGA,0.258
3,GAAGCGAA,0.112
4,ACAGACTG,-0.0243
5,TCACACGA,0.325
6,ATGATTAA,0.164
7,AGTATCGG,-0.0624
8,ACATTCGT,0.221
9,CAATTAGG,0.0235
10,CTCCAATA,0.00473
11,ACAAAGGA,0.0998
12,ATCGGCCG,-0.174
13,CACCTATA,0.0244
14,GACGGTAA,-0.176
15,AGACGTCG,-0.158
16,GATGGCGA,-0.147
17,AGAATACA,0.366
18,AGGGCAGG,-0.218
19,CGGGAGGA,-0.209
20,ACCTGGCA,-0.091
21,ATCTTATG,0.0217
22,ACTGGGTA,-0.033
23,AAATTTCA,-0.00634
24,GTAGACCA,-0.0544
25,AATATCGT,0.127

row,Sequence,PBM E-score
1,TGCTAACA,0.245
2,ATTGGATA,-0.0251
3,CGTTTCAA,0.0417
4,ACCAGTAT,-0.213
5,GGGCACCC,-0.368
6,TACCACTA,-0.0703
7,AAGAAACA,0.239
8,ATCAAATC,0.0221
9,CAGGACAG,-0.125
10,AATTGAGA,-0.0899
11,CCGATTAC,0.216
12,GAGGCCAA,-0.12
13,CGCCCGTA,-0.163
14,CGCCTCGC,-0.21
15,AGCTTGTC,0.133
16,ACCACGAG,-0.135
17,ATTTATAG,0.0217
18,AATGATCG,-0.102
19,ATGGGACA,-0.284
20,GCACGGCC,-0.0358
21,ACATTAGC,-0.00543
22,ACTATGAT,-0.0386
23,ACTTACTC,0.088
24,CATTAGAA,0.155
25,CATAAGTA,0.0775

row,Sequence,PBM E-score
1,CGACCGCG,-0.135
2,ACACACCT,0.303
3,GAAATAAA,0.0795
4,CGCCTGAG,-0.185
5,CAAACTGA,-0.0714
6,AATGGTAA,0.2
7,CCACCCCA,-0.123
8,ATATTACG,0.352
9,CGGACGCA,-0.241
10,ACGATGAG,0.0592
11,GTGTGCAA,0.2
12,GAGACATA,0.103
13,CGATCACA,0.213
14,CCCTAATA,-0.0852
15,GCTGTTGA,0.102
16,GCATTCAA,-0.0147
17,ACTCCCAA,-0.103
18,CTCGAAAG,-0.11
19,CTAGACAG,-0.125
